Among all 310,000 compounds or so, about 2,200 (0.71%) showed an effect of 50% or more. The effect is printed as a negative number. The list shows a part of the results.
What follows are molecules tested against human ether-à-go-go-related gene (hERG) potassium channel (human, UniProt Q12809) (assay: primary screen, population patch clamp on CHO cells stably expressing hERG).
human ether-à-go-go-related gene (hERG) potassium channel, sequence (Q12809 whole entry, looked up): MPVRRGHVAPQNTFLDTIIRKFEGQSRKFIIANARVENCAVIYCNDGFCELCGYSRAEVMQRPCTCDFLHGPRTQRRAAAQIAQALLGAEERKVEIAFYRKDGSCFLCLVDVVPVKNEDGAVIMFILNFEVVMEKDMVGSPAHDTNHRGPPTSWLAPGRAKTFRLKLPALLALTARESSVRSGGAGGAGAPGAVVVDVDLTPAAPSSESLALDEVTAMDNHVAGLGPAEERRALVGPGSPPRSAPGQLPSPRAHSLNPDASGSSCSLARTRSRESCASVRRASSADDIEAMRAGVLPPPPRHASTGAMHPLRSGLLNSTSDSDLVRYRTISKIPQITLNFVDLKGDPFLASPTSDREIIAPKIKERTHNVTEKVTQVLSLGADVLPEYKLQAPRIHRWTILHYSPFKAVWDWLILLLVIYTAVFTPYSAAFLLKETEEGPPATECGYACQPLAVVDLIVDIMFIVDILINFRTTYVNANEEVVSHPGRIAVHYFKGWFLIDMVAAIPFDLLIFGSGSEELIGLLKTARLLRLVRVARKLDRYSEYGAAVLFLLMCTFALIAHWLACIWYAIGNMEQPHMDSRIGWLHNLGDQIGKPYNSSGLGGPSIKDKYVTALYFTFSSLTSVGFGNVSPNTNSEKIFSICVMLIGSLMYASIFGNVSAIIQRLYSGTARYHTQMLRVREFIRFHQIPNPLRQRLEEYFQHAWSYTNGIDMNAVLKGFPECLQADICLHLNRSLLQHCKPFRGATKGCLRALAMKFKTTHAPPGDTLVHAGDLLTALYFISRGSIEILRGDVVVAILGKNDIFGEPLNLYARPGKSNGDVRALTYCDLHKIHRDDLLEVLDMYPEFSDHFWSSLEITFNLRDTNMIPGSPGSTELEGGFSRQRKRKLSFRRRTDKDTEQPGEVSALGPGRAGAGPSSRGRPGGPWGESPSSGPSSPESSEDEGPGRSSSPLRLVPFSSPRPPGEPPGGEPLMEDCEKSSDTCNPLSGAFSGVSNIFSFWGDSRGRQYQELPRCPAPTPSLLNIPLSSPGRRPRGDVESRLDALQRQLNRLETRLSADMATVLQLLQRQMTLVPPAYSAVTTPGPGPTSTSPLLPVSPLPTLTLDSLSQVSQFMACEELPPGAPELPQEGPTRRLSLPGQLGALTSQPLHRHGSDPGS
With `COc1nc(C)nc2c1ccc1ccccc12` the “hERG current change (%, negative = inhibition) at 1uM” value was 6.65%.
`Cc1ccc(C(C)NC(=O)c2ccc3c(c2)OCCO3)cc1C` (stereo not drawn) was tested, and the “hERG current change (%, negative = inhibition) at 1uM” value was 4.6%.
`CCOC(=O)C1(CCc2ccccc2)CCN(Cc2ccco2)CC1` was tested, and the “hERG current change (%, negative = inhibition) at 1uM” value was -42.7%.
For `CCOC(=O)/C(C#N)=C/c1cn(CCC(=O)O)nc1-c1ccc(OC)cc1`, the “hERG current change (%, negative = inhibition) at 1uM” value was 10.6%.
In the case of `CC(=O)c1nnn(-c2cccc([N+](=O)[O-])c2)c1C`, the “hERG current change (%, negative = inhibition) at 1uM” value was 6.76%.
For `O=C(c1ccccc1)N(Cc1cccs1)C1CCS(=O)(=O)C1` (stereo not drawn), the “hERG current change (%, negative = inhibition) at 1uM” value was 13.9%.
In the case of `CC1CCCN(C(=O)COc2ccc(NC(=O)c3cccs3)cc2)C1` (stereo not drawn), the “hERG current change (%, negative = inhibition) at 1uM” value was 12%.
`COC(=O)c1ccccc1NC(=O)c1cc(OC)cc(OC)c1` was tested, and the “hERG current change (%, negative = inhibition) at 1uM” value was -0.763%.
In the case of `CCCc1nc2oc3ccccc3c(=O)c2c(=O)n1CCCOC`, the “hERG current change (%, negative = inhibition) at 1uM” value was 7.04%.
`CCc1ccc2ncc(C(=O)c3ccccc3)c(N3CCOCC3)c2c1` was tested, and the “hERG current change (%, negative = inhibition) at 1uM” value was 5.69%.
For `C=CCOC(=O)C1=C[C@H](C(C)(C)C)[C@@H](CCCO)[C@H](OCC)O1`, the “hERG current change (%, negative = inhibition) at 1uM” value was 19.4%.
In the case of `CCN(CCn1cccn1)C(=O)c1cc(COc2cc(C)ccc2C)on1`, the “hERG current change (%, negative = inhibition) at 1uM” value was -2.57%.
`CCOC(=O)C1CCN(C(=O)c2ccc3c(c2)NC(=O)/C(=C\c2ccc(C)cc2)S3)CC1` was tested, and the “hERG current change (%, negative = inhibition) at 1uM” value was 7.95%.
In the case of `COCCn1c(SCC(=O)N2CCOCC2)nnc1-c1ccco1`, the “hERG current change (%, negative = inhibition) at 1uM” value was 25.1%.
With `O=C1NC(=O)C2(Cc3ccccc3N3CCCC32)C(=O)N1c1ccccc1` (stereo not drawn) the “hERG current change (%, negative = inhibition) at 1uM” value was 14.2%.
`O=C(COC(=O)COc1ccccc1F)Nc1ccc(Cl)cn1` was tested, and the “hERG current change (%, negative = inhibition) at 1uM” value was 7.31%.
`Cc1ccc(OCc2ccc(C(=O)Nc3nccs3)o2)cc1` was tested, and the “hERG current change (%, negative = inhibition) at 1uM” value was -3.4%.
For `Cc1nc(Nc2cc(F)ccc2C)c2nnn(Cc3ccccc3)c2n1`, the “hERG current change (%, negative = inhibition) at 1uM” value was 2.56%.
`O=C(N/N=C(\c1ccccc1)c1cccnc1)c1cc(O)ccc1O` was tested, and the “hERG current change (%, negative = inhibition) at 1uM” value was 11.4%.
For `Cc1cccc(C(=O)OCC(=O)NCc2ccco2)c1`, the “hERG current change (%, negative = inhibition) at 1uM” value was 6.36%.
For `C=CCN(CC=C)CCOc1ccc(OC(C)C)cc1.O=C(O)C(=O)O`, the “hERG current change (%, negative = inhibition) at 1uM” value was -14.5%.
For `CCN(CC)S(=O)(=O)c1ccc(Cl)c(C(=O)Nc2cc(C)nn2-c2ccccc2C(F)(F)F)c1`, the “hERG current change (%, negative = inhibition) at 1uM” value was 3.06%.
For `CCOCCCNC(=O)c1c[nH]c2ccc(OCC)cc2c1=O`, the “hERG current change (%, negative = inhibition) at 1uM” value was 10.9%.
In the case of `COc1ccccc1/C=N/NC(=O)CSc1cc(C)nc2ccccc12`, the “hERG current change (%, negative = inhibition) at 1uM” value was 10.4%.
With `COc1ccc2c(c1)c(/C=C/c1cc[n+](C)cc1)cn2C.[I-]` the “hERG current change (%, negative = inhibition) at 1uM” value was 14.6%.
`CCOc1ccccc1N(CC(=O)Nc1c(C)n(C)n(-c2ccccc2)c1=O)S(=O)(=O)c1ccccc1` was tested, and the “hERG current change (%, negative = inhibition) at 1uM” value was 3.66%.
In the case of `O=C(CSc1nc2c(c(=O)n1-c1ccc(F)cc1)SCC2)N1CCCC1`, the “hERG current change (%, negative = inhibition) at 1uM” value was 8.13%.
`COc1cccc(N2CN(CCc3ccccc3)CNC2=S)c1` was tested, and the “hERG current change (%, negative = inhibition) at 1uM” value was 8.03%.
With `O=C(O)c1ccc2nc(C(F)(F)F)[nH]c2c1` the “hERG current change (%, negative = inhibition) at 1uM” value was 5.07%.
For `CN1CCN(c2ccc(S(=O)(=O)N3CCCCC3)cc2NC(=O)COc2ccc([N+](=O)[O-])cc2)CC1`, the “hERG current change (%, negative = inhibition) at 1uM” value was -1.77%.
For `O=S(=O)(NC1CCCCC1NS(=O)(=O)c1ccc(F)cc1)c1ccc(F)cc1` (stereo not drawn), the “hERG current change (%, negative = inhibition) at 1uM” value was 9.19%.
With `N=c1c2c3c(sc2ncn1CCN1CCOCC1)CCCC3` the “hERG current change (%, negative = inhibition) at 1uM” value was 3.39%.
`CC1=C(C(=O)O)N2C(=O)C(NC(=O)c3nn(C)cc3[N+](=O)[O-])C2SC1` (stereo not drawn) was tested, and the “hERG current change (%, negative = inhibition) at 1uM” value was 17.6%.
In the case of `COc1ccc(C(=O)Nc2ccc(NC(=O)c3cccs3)c(OC)c2)cc1Cl`, the “hERG current change (%, negative = inhibition) at 1uM” value was -3.7%.
In the case of `Cn1c(SCC(=O)N=Nc2c(O)[nH]c3ccccc23)nc2ccccc21`, the “hERG current change (%, negative = inhibition) at 1uM” value was 15.1%.
In the case of `COc1ccccc1CNC(=O)C1CCCN(S(C)(=O)=O)C1` (stereo not drawn), the “hERG current change (%, negative = inhibition) at 1uM” value was 13.6%.
For `Cc1ccc2c(C)c(C(=O)N(Cc3ccc(F)cc3)C3CCS(=O)(=O)C3)oc2c1` (stereo not drawn), the “hERG current change (%, negative = inhibition) at 1uM” value was 6.92%.
`Cc1ccc(/C=C(\C#N)C(=O)Nc2ccccn2)o1` was tested, and the “hERG current change (%, negative = inhibition) at 1uM” value was 10%.
In the case of `CCN(c1ccc(OC)cc1)S(=O)(=O)c1cc(-c2cc(C)no2)ccc1OC`, the “hERG current change (%, negative = inhibition) at 1uM” value was 11.4%.
For `C=C(c1ccccc1C)[n+]1ccccc1`, the “hERG current change (%, negative = inhibition) at 1uM” value was 19.5%.
For `COc1ccccc1N(CC(=O)N/N=C(\C)c1cccc(Br)c1)S(C)(=O)=O`, the “hERG current change (%, negative = inhibition) at 1uM” value was 8.77%.
In the case of `O=C(O)CCn1ccnc1-c1ccccc1`, the “hERG current change (%, negative = inhibition) at 1uM” value was -2.73%.
For `Cc1c(Cl)cccc1NC(=S)N=Nc1c(O)n(CN2CCOCC2)c2ccccc12`, the “hERG current change (%, negative = inhibition) at 1uM” value was 8.7%.
In the case of `COc1ccc(/C=N/N(c2ccccc2)c2ccccc2)cc1O`, the “hERG current change (%, negative = inhibition) at 1uM” value was 3.33%.
For `COc1ccc(S(=O)(=O)NC(CC(C)C)C(=O)NC(C)c2cccs2)cc1` (stereo not drawn), the “hERG current change (%, negative = inhibition) at 1uM” value was 0.791%.
For `O=C(O)c1ccc2c(=O)[nH]c(CN3CCOCC3)nc2c1`, the “hERG current change (%, negative = inhibition) at 1uM” value was 15.6%.
`O=C(Cc1cccs1)Nc1nnc(-c2ccccc2)s1` was tested, and the “hERG current change (%, negative = inhibition) at 1uM” value was 11.2%.
In the case of `O=C(N/N=C/C=C\c1ccccc1[N+](=O)[O-])c1ccco1`, the “hERG current change (%, negative = inhibition) at 1uM” value was 6.82%.
With `CCOC(=O)C1=C(COC(=O)CCNS(=O)(=O)c2ccc(NC(C)=O)cc2)NC(=O)NC1C` (stereo not drawn) the “hERG current change (%, negative = inhibition) at 1uM” value was 10.6%.
With `COc1ccc(OC)c(NC(=O)Nc2nnc(N3CCCCC3C)s2)c1` (stereo not drawn) the “hERG current change (%, negative = inhibition) at 1uM” value was 6.99%.
In the case of `O=C(C1CCN(Cc2ccccc2)CC1)N1CCCC1`, the “hERG current change (%, negative = inhibition) at 1uM” value was 8.55%.
With `NNc1cc([N+](=O)[O-])cc2c1C(=O)N(Cc1ccccc1)S2=O` (stereo not drawn) the “hERG current change (%, negative = inhibition) at 1uM” value was 7.78%.
For `Cn1nc(C(C)(C)C)c([N+](=O)[O-])c1C(=O)Nc1cccc2ccccc12`, the “hERG current change (%, negative = inhibition) at 1uM” value was 6.53%.
With `O=C(Nc1ccc(F)c([N+](=O)[O-])c1)c1ccc2c(c1)OCCO2` the “hERG current change (%, negative = inhibition) at 1uM” value was 14.2%.
`CC(C)(C)Cc1nnc(NS(=O)(=O)c2ccccc2)s1` was tested, and the “hERG current change (%, negative = inhibition) at 1uM” value was 14%.
For `COCC(=O)N1CCC(Oc2ccc(C(=O)N[C@H](C(=O)OC)C(C)C)cc2)CC1`, the “hERG current change (%, negative = inhibition) at 1uM” value was 16.8%.
With `CNc1oc(-c2ccccc2Cl)nc1P(=O)(c1ccccc1)c1ccccc1` the “hERG current change (%, negative = inhibition) at 1uM” value was 3.1%.

From PMC4336329 (PLoS ONE, 2015)
